Results as given in PubChem BioAssay AID686971 (National Center for Advancing Translational Sciences (NCATS), 2013).
Screen size: about 360,000 compounds; about 7,500 (2.1%) were called active. This list was built around the results that the source calls inconclusive (neither active nor inactive); the mix of calls is not that of the screen. Calls follow the shape of the dose curve; as a rule, active = well fitted cell-killing curve with a large enough effect; inconclusive = small, poorly fitted or top-dose-only effect, or effect the other way, or another doubt; inactive = no such curve, though single readings can be large or run the other way. Potencies of inconclusive entries are left out as doubtful fits.

Test: qHTS for induction of synthetic lethality in tumor cells producing 2HG: qHTS for the HT-1080-IDH1KD cell line;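 as to activity, negative = toxicity: 0% = DMSO wells and -100% = cell-free medium wells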
Details: HT-1080 IDH1 knockdown viability, ATP luminescence, 48 h; activity, negative = toxicity: at 46.1 µM (top of the series) unless noted
Procedure, shortened: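 In this qHTS, HT-1080 cells depleted of IDH1 are exposed for 48 h at 37 °C to compound titrations. Toxicity is scored from CellTiter-Glo luminescence, with DMSO as full viability and medium alone as none.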
Potency is read from the fitted curve at half-maximal effect; tags tell the direction and shape of the fitted curve.

SMILES	Potency	activity, negative = toxicity
CCOC(=O)c1c(NC(=O)COC(=O)CNC(=O)c2ccc(Cl)cc2Cl)sc(C(=O)N(C)C)c1C	inactive	
Cc1ccc2c(c1)c1c(n2CC(O)CN2CCCCC2C)CCCC1 (stereo not drawn)	inconclusive [cytotoxic, single point]	
CC(C=NNC(=O)C(=O)NN=CC(C)=Cc1ccccc1)=Cc1ccccc1	inactive	
CNC(=S)N(C)[C@H]1c2c(ccc3ccccc23)OC[C@H]1CO	inactive	
COCC(C)n1c(C)cc(C(=O)COC(=O)CNC(=O)c2ccccc2)c1C (stereo not drawn)	inactive	
O=C(CN1CCCCC1)Nc1cc(S(=O)(=O)N2CCOCC2)ccc1N1CCCC1	inactive	
Cc1ccc(-c2nc(N)sc2-c2ccc(C)cc2)cc1	inconclusive [cytotoxic, single point]	
Cn1c2c(c3ccccc31)CCN(CCCCN1CCN(c3ccccc3)CC1)C2=O	inconclusive [cytotoxic, single point]	
Cc1ccc(NCc2nnc(SCc3ccc(C#N)cc3)n2Cc2ccco2)c(C)c1	inactive	
CCN(c1ccccc1)S(=O)(=O)c1ccc(Cl)c(NC(=O)CN(C)Cc2cccc(F)c2)c1	inactive	
CCN(CC)CCC(=O)N1c2ccccc2CCc2ccc(NC(=O)OC)cc21	inconclusive [cytotoxic, single point]	
COc1ccc(-c2nc(N)nc(C(F)(F)F)c2-c2ccccc2OC)c(O)c1	inactive	
CC(C)(C)c1ccc(/C=N/NC(=S)NC2CCCCC2)cc1	inconclusive [cytotoxic, single point]	
CC(C)n1c(/C=C/[C@@H](O)C[C@@H](O)CC(=O)O)c(-c2ccc(F)cc2)c2ccccc21	active: 1.46 µM	
O=C(Nc1cnn(Cc2ccc(F)cc2)c1)c1cc(-c2ccco2)on1	inconclusive [cytotoxic, partial curve]	
COc1ccc(CCNC(=O)COc2cc(C)cc3oc(=O)cc(C)c23)cc1OC	inactive	
O[C@@H]1CN(CC2CCCCC2)[C@@H](c2ccccc2)C[C@H]1n1cc(-c2ccc(F)cc2)nn1	inconclusive [cytotoxic, single point]	
CCOc1ccc2nc(NC(=O)C3CCCN(S(=O)(=O)c4cccc5nonc45)C3)sc2c1 (stereo not drawn)	inconclusive [cytotoxic, single point]	
CCCCCCCCN1C(=O)[C@H](CC(=O)NCCC(C)C)C[C@@]2(C(=O)OC)CCCCC=C12	inactive	
Cc1ccc(S(=O)(=O)CCc2nnc(NC(=O)c3cnccn3)s2)cc1	inactive	
CCc1cc(C(c2ccc(OC)c(OC)c2)N2CCOCC2)c(NC(=O)c2ccccc2)s1 (stereo not drawn)	inactive	
CCCCCC(=O)N1C[C@@H](O)[C@H](n2cc(COC(=O)c3ccccc3)nn2)C[C@@H]1c1ccc(C)cc1	inactive	
CSc1cccc(NC(=S)NCCCN2CCN(c3ccc(F)cc3)CC2)c1	inactive	

SMILES	Potency	activity, negative = toxicity
C/C(Cn1nnc([N+](=O)[O-])n1)=N\NC(=O)c1ccccc1Cl	inconclusive [cytotoxic, single point]	
Cc1[nH]c2ccccc2c1SCC(=O)N1CCN(c2ccccc2)CC1	inactive	
COc1cccc(NC(=S)N2CCN(C/C=C/c3ccccc3)CC2)c1	inconclusive [cytotoxic, single point]	
CCOC(=O)c1sc(NC(=O)c2cccc(S(=O)(=O)N3CCc4ccccc43)c2)c(C#N)c1C		inconclusive: -19.9% [cytotoxic]
CCNC(=O)N1CCN(CCCC(c2ccc(F)cc2)c2ccc(F)cc2)CC1	inconclusive [cytotoxic, partial curve]	
O=C(c1ccncc1)c1ccc(N2CCN(C3CC(=O)N(Cc4ccccc4)C3=O)CC2)cc1 (stereo not drawn)	inconclusive [cytotoxic, partial curve]	
COc1cccc(NC(=S)N(CCCN2CCCC2)Cc2cccn2Cc2ccc(Cl)cc2)c1	active: 18.4 µM	
Cc1cccc(C(=O)NNC(=S)NC(=O)c2ccccc2)c1	inconclusive [cytotoxic, single point]	
CC1=C(C(=O)OC2CCCC2)C(c2ccc(C)o2)C2=C(CC(c3cccs3)CC2=O)N1 (stereo not drawn)	inconclusive [cytotoxic, single point]	
CC(=O)n1cc(C(C[N+](=O)[O-])SCCN)c2ccccc21 (stereo not drawn)	inconclusive [cytotoxic, partial curve, poor fit]	
COCOCCn1cc(CN2CCS(=O)(=O)N(Cc3ccc(-c4ccc(Cl)c(Cl)c4)cc3)C(C)C2=O)nn1 (stereo not drawn)	inconclusive [cytotoxic, single point]	
O=C(N/N=C\c1ccccc1)c1ccccc1-n1cccc1	inactive	
COc1ccccc1OC(C)C(=O)N(Cc1ccco1)C1CCS(=O)(=O)C1 (stereo not drawn)	inactive	
C[C@H](CO)N1C[C@H](C)[C@@H](CN(C)CC2CC2)Oc2c(NC(=O)Cc3ccccc3)cccc2C1=O	inconclusive [cytotoxic, single point]	
O=C(CSc1nc2[nH]ncc2c(=O)n1-c1ccccc1)N1CCCc2ccccc21	inconclusive [cytotoxic, partial curve]	
O=C(N[C@@H]1C/C=C\C[C@@H](CC(=O)N(CCO)Cc2ccccc2)C(=O)NC[C@H](c2ccccc2)OC1=O)OCC1c2ccccc2-c2ccccc21	inactive	
COc1ccc(-c2noc(CSc3nnc(CCc4ccccc4)n3-c3ccccc3)n2)cc1OC	inconclusive [cytotoxic, single point]	
COc1cccc(/C=C/C(=O)N2CCN(c3n[nH]c(=O)[nH]c3=O)CC2)c1OC	inactive	
COc1ccc(-n2c(O)c(C=NCc3ccccn3)c3ccccc3c2=O)c(OC)c1	inconclusive [cytotoxic, partial curve]	
O=C(CCl)Nc1ccc(-c2ccccc2)cc1	active: 9.2 µM	
CC(C)NC1=C(Cl)C(=O)c2ccccc2C1=O	active: 7.08 µM	
Nc1nc(SCC(=O)Nc2cc(-c3ccccc3)nn2-c2ccccc2)n[nH]1	inconclusive [cytotoxic, single point]	
O=C(NCc1ccccn1)C(=O)N/N=C/c1ccc2c(c1)OCO2	inconclusive [cytotoxic, single point]	

SMILES	Potency	activity, negative = toxicity
COC(=O)C12OCC34C(CC5C(C)=C(O)C(=O)CC5(C)C3C(O)C1O)OC(=O)C(OC(=O)C=C(C)C)C24 (stereo not drawn)	active: 0.0366 µM	
O=c1c2ccccc2sn1-c1cc(S(=O)(=O)N2CCOCC2)ccc1N1CCCC1	inconclusive [cytotoxic, single point]	
CC(C)Cn1c(N)c(C(=O)NCC2CCCO2)c2nc3ccccc3nc21 (stereo not drawn)	inconclusive [cytotoxic, single point]	
CCCCc1c(-c2cccc(Cl)c2)ncn1CCc1ccccc1OC	inconclusive [cytotoxic, single point]	
COc1ccc(-n2nnnc2-c2cnc3cc4c(cc3c2C)OCO4)cc1	inactive	
C=CCC[C@@H](Cc1ccc(F)cc1)C(=O)OC[C@@H](Cc1c[nH]c2ccccc12)NC(=O)[C@H](CC=C)CC(=O)N(CCO)Cc1ccccc1	inconclusive [cytotoxic, single point]	
Oc1ccc(C[C@@H]2CNCCN2CCC23CC4CC(CC(C4)C2)C3)cc1	active: 23.1 µM	
O=C(/C=C/c1ccco1)Nc1ccc(Oc2ccccc2)cc1	inconclusive [cytotoxic, partial curve]	
O=C(COc1ccc(Cl)cc1Cl)Nc1ccc(CN2CCOCC2)cc1	inconclusive [cytotoxic, partial curve]	
CCn1c(SCC(=O)OC(C)C)nnc1-c1cccc(Cl)c1	inconclusive [rising, partial curve, poor fit]	
Clc1ccc(-n2nnnc2-c2cnc3ccccc3c2-c2ccccc2)cc1	inconclusive [cytotoxic, single point]	
CCCC(C)(C)C(=O)N1CCC1(C)C(=O)NS(=O)(=O)c1cccc(Cl)c1 (stereo not drawn)	inconclusive [rising, single point]	
O=C(CN1C(=O)/C(=C\c2ccc(C(F)(F)F)cc2)Sc2ccccc21)NCc1ccco1	inconclusive [cytotoxic, single point]	
O=C(/C=C/Nc1ccc([N+](=O)[O-])cc1Br)c1cccc2ccccc12	inactive	
Cc1cc(C)nc(N2CCCC(C(=O)Nc3ccc4c(c3)OCCO4)C2)n1 (stereo not drawn)	inconclusive [cytotoxic, single point]	
O=C(Nc1cccc(F)c1)c1cc(S(=O)(=O)NCCC2=CCCCC2)ccc1F	inconclusive [cytotoxic, partial curve]	
COc1ccc(C(C)(O)c2nc(-c3cccc(F)c3)cs2)cc1 (stereo not drawn)	inconclusive [cytotoxic, single point]	
COc1ccc(Nc2nc(C(=O)N3CCc4cc(OC)c(OC)cc4C3)cs2)cc1	inconclusive [cytotoxic, single point]	
Clc1ccc2nc(C3CCN(Cc4ccccc4)CC3)[nH]c2c1	inconclusive [cytotoxic, single point]	
NC(=O)c1ccsc1NC(=O)c1ccc([N+](=O)[O-])o1	inconclusive [cytotoxic, single point]	
CCc1nc(C)cn1S(=O)(=O)c1cc(OC)c(C)cc1C	inactive	
N/C(=N\OC(=O)c1ccc(Cl)cc1[N+](=O)[O-])c1ccccn1	inconclusive [cytotoxic, single point]	
